Reference: PubChem BioAssay
Inconclusive means that the source gave no clear call. Such entries were picked first, then a sample of the others. Active and inactive are the calls of the source.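 How the source made its calls: active means thallium flux slope above the same plate's solvent-control mean plus 3 SD in both duplicate wells; inconclusive means duplicate wells that disagreed; inactive means the rest.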

Test: native HEK Tl+ uptake effects, second counter-screen – HEK cells, counterscreen 2, counter-screen for KCC2 modulator project, confirmation (AID 1718);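 further: run without ouabain in cells lacking the KCC2 cotransporter; slope of fluorescence scaled to its starting value between 10 and 20 s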
Settings: HEK293 parental, thallium flux FluoZin-2 fluorescence slope; at 10 µM
Method in brief: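 Read-out: thallium influx rate; assay system: parental HEK cells; replication: slope calculated separately for each replicate well; signal: FluoZin2-AM fluorescence (0.5 µM), ex 480 nm, em 540 nm, kinetic 1 Hz; benchmarks: bumetanide 2 mM; schedule: overnight cell culture at 37 °C, 48 min dye loading, compound before thallium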
In the case of `COc1ccc(C2CCCN2C(=O)Nc2ccc(Cl)cc2)cc1OC` (centres undefined), the thallium flux slope is reported as inactive: 0.011.
With `COc1cccc(-c2nnc(NC(=O)c3ccc4ncsc4c3)o2)c1` the thallium flux slope was inconclusive: 0.0115.
With `Cc1ccnc(N2CCN(C(=O)CSc3nc4ccccc4nc3N3CCC(C)CC3)CC2)c1` the thallium flux slope was inconclusive: 0.0132.
With `Cc1cccc(Nc2n[nH]c(=S)s2)c1C` the thallium flux slope was inconclusive: 0.00975.
In the case of `Cc1cc(NC(=O)c2ccc(S(=O)(=O)N3CCCC3)cc2)nc2c1c(=O)oc1ccccc12`, the thallium flux slope is reported as inconclusive: 0.0108.
For `N#C/C(=C(/O)COc1ccc(Cl)cc1)c1nc2ccccc2s1`, the thallium flux slope was inactive: 0.0113.
In the case of `Cc1ccc(C2=NNC(c3cccc(F)c3)S2)cc1` (centres undefined), the thallium flux slope is reported as inconclusive: 0.0104.
For `CCC(=Nc1ccc(Cc2ccncc2)cc1)c1c(O)n(C)c(=O)n(C)c1=O`, the thallium flux slope was inactive: 0.0116.
With `COc1ccc(C(=O)Nc2cccc(/C=C(\CCC(=O)O)c3nc4ccccc4s3)c2)cc1` the thallium flux slope was inconclusive: 0.00932.
